Measured values taken from publication PMC10117376.
These are yes or no findings as the source states them, for the method shown. Binding seen in cells or lysates may run through a third protein. Some binding calls cover weakened binding; strength is not graded here. Sequences can lack the tags named with a protein.

Chains of the proteins cited; added tags and fusions are not shown.
UniProt Q6W2J9: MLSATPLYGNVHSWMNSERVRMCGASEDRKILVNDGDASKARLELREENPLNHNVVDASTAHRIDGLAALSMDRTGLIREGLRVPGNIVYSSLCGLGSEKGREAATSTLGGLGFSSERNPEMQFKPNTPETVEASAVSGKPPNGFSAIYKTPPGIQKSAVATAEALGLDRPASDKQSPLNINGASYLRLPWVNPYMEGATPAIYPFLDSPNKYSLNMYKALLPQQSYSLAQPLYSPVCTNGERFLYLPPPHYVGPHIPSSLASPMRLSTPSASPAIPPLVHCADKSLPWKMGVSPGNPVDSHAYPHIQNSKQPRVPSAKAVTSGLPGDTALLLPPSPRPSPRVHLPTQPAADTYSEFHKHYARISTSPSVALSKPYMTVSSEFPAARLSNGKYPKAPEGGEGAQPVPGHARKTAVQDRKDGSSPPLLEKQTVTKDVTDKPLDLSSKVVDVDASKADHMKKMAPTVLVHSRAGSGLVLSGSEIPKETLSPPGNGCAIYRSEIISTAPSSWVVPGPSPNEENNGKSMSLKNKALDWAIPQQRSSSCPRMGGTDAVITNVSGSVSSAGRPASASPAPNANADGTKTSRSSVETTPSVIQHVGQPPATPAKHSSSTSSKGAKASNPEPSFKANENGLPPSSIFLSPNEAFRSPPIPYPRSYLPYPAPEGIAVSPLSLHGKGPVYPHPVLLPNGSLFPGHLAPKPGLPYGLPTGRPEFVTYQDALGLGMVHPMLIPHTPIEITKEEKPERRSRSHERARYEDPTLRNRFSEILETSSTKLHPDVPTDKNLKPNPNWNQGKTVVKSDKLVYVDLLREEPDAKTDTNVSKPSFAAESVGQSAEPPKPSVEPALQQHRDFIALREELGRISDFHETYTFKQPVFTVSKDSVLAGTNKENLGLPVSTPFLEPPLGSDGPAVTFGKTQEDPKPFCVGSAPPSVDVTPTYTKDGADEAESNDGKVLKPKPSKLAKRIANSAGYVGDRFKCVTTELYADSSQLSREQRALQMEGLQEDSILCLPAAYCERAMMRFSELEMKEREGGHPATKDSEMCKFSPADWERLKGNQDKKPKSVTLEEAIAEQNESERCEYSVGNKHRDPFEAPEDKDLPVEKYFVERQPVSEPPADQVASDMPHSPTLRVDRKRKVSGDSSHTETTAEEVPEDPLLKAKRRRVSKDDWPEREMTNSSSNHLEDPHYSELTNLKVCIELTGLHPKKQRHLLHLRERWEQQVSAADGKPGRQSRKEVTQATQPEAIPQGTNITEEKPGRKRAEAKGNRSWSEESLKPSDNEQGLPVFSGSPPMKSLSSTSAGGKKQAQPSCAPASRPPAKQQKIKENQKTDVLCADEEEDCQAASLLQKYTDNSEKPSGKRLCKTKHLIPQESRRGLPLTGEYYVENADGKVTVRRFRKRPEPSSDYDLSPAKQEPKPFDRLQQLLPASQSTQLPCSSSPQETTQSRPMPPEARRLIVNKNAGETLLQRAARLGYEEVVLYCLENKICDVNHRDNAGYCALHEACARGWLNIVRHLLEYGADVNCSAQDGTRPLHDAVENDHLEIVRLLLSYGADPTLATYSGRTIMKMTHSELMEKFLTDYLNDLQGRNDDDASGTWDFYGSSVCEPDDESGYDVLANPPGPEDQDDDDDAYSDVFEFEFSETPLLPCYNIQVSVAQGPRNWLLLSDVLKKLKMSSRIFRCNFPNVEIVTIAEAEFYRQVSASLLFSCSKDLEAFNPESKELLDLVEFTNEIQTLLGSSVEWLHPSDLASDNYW
UniProt Q8WXI9: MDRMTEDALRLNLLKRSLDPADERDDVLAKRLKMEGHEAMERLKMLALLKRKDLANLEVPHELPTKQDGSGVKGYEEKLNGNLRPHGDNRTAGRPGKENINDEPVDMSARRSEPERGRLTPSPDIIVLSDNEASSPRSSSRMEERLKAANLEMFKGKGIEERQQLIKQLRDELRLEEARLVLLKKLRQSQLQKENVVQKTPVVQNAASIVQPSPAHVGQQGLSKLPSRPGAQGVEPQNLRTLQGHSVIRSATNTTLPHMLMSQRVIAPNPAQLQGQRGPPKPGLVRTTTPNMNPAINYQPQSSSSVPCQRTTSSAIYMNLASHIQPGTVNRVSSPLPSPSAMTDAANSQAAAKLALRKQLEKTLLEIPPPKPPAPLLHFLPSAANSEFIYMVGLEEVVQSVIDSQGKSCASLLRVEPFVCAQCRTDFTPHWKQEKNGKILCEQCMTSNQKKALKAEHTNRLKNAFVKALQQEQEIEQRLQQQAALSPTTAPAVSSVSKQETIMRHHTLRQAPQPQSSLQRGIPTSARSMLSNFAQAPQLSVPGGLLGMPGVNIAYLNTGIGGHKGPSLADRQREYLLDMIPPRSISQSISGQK

T1: YFP-TBR1 p.Q418R (human) (UniProt Q16650)
T1 sequence: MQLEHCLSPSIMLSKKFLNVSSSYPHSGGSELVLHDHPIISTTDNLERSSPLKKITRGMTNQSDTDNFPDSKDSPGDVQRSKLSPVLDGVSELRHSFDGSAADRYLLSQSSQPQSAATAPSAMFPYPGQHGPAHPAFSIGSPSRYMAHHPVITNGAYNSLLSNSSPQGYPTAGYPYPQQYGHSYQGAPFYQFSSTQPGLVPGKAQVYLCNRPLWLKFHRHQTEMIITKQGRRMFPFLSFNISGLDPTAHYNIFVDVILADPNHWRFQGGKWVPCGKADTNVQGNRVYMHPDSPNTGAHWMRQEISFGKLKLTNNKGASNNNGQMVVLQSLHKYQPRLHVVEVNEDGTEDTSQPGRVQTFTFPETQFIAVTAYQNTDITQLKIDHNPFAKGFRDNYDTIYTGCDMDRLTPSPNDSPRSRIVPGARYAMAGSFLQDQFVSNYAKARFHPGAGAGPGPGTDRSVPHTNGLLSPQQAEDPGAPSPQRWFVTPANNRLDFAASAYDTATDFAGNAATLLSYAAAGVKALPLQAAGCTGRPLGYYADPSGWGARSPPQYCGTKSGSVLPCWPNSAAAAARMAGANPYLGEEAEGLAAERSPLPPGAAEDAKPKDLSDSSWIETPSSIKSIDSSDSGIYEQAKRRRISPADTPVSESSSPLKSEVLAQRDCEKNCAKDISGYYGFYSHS


Target: T1, YFP-TBR1 p.Q418R (human)
Assay: FRET or BRET; BRET in live HEK293 cells transfected with pairs of N-terminal Rluc and YFP fusions, 96-well plates; EnduRen substrate 48 h after transfection; Rluc-NLS and YFP-NLS as controls

binding | Molecule
binds weakly | Rluc-BCOR (from UniProt Q6W2J9 1-1755)
no binding | Rluc-GATAD2B (from UniProt Q8WXI9 1-593)
no binding | Rluc-ADNP (protein, UniProt Q9H2P0 1-1102) MFQLPVNNLGSLRKARKTVKKILSDIGLEYCKEHIEDFKQFEPNDFYLKNTTWEDVGLWDPSLTKNQDYRTKPFCCSACPFSSKFFSAYKSHFRNVHSEDFENRILLNCPYCTFNADKKTLETHIKIFHAPNASAPSSSLSTFKDKNKNDGLKPKQADSVEQAVYYCKKCTYRDPLYEIVRKHIYREHFQHVAAPYIAKAGEKSLNGAVPLGSNAREESSIHCKRCLFMPKSYEALVQHVIEDHERIGYQVTAMIGHTNVVVPRSKPLMLIAPKPQDKKSMGLPPRIGSLASGNVRSLPSQQMVNRLSIPKPNLNSTGVNMMSSVHLQQNNYGVKSVGQGYSVGQSMRLGLGGNAPVSIPQQSQSVKQLLPSGNGRSYGLGSEQRSQAPARYSLQSANASSLSSGQLKSPSLSQSQASRVLGQSSSKPAAAATGPPPGNTSSTQKWKICTICNELFPENVYSVHFEKEHKAEKVPAVANYIMKIHNFTSKCLYCNRYLPTDTLLNHMLIHGLSCPYCRSTFNDVEKMAAHMRMVHIDEEMGPKTDSTLSFDLTLQQGSHTNIHLLVTTYNLRDAPAESVAYHAQNNPPVPPKPQPKVQEKADIPVKSSPQAAVPYKKDVGKTLCPLCFSILKGPISDALAHHLRERHQVIQTVHPVEKKLTYKCIHCLGVYTSNMTASTITLHLVHCRGVGKTQNGQDKTNAPSRLNQSPSLAPVKRTYEQMEFPLLKKRKLDDDSDSPSFFEEKPEEPVVLALDPKGHEDDSYEARKSFLTKYFNKQPYPTRREIEKLAASLWLWKSDIASHFSNKRKKCVRDCEKYKPGVLLGFNMKELNKVKHEMDFDAEWLFENHDEKDSRVNASKTADKKLNLGKEDDSSSDSFENLEEESNESGSPFDPVFEVEPKISNDNPEEHVLKVIPEDASESEEKLDQKEDGSKYETIHLTEEPTKLMHNASDSEVDQDDVVEWKDGASPSESGPGSQQVSDFEDNTCEMKPGTWSDESSQSEDARSSKPAAKKKATMQGDREQLKWKNSSYGKVEGFWSKDQSQWKNASENDERLSNPQIEWQNSTIDSEDGEQFDNMTDGVAEPMHGSLAGVKLSSQQA
binds | Rluc-NR2F1 (protein, UniProt P10589 1-423) MAMVVSSWRDPQDDVAGGNPGGPNPAAQAARGGGGGAGEQQQQAGSGAPHTPQTPGQPGAPATPGTAGDKGQGPPGSGQSQQHIECVVCGDKSSGKHYGQFTCEGCKSFFKRSVRRNLTYTCRANRNCPIDQHHRNQCQYCRLKKCLKVGMRREAVQRGRMPPTQPNPGQYALTNGDPLNGHCYLSGYISLLLRAEPYPTSRYGSQCMQPNNIMGIENICELAARLLFSAVEWARNIPFFPDLQITDQVSLLRLTWSELFVLNAAQCSMPLHVAPLLAAAGLHASPMSADRVVAFMDHIRIFQEQVEKLKALHVDSAEYSCLKAIVLFTSDACGLSDAAHIESLQEKSQCALEEYVRSQYPNQPSRFGKLLLRLPSLRTVSSSVIEQLFFVRLVGKTPIETLIRDMLLSGSSFNWPYMSIQCS
binds | Rluc-NR2F2 (protein, UniProt P24468 1-414) MAMVVSTWRDPQDEVPGSQGSQASQAPPVPGPPPGAPHTPQTPGQGGPASTPAQTAAGGQGGPGGPGSDKQQQQQHIECVVCGDKSSGKHYGQFTCEGCKSFFKRSVRRNLSYTCRANRNCPIDQHHRNQCQYCRLKKCLKVGMRREAVQRGRMPPTQPTHGQFALTNGDPLNCHSYLSGYISLLLRAEPYPTSRFGSQCMQPNNIMGIENICELAARMLFSAVEWARNIPFFPDLQITDQVALLRLTWSELFVLNAAQCSMPLHVAPLLAAAGLHASPMSADRVVAFMDHIRIFQEQVEKLKALHVDSAEYSCLKAIVLFTSDACGLSDVAHVESLQEKSQCALEEYVRSQYPNQPTRFGKLLLRLPSLRTVSSSVIEQLFFVRLVGKTPIETLIRDMLLSGSSFNWPYMAIQ
